The RNAGym collection of RNA variant scans (doi:10.7554/elife.90254)
The source gives no read counts; variants with many changes may rest on few reads.

B1: LINE1-full (parent)
chain: UACGUAGGUGGUUUUCCCCUGAUAGUGCUAAGGGGGCCUGGAAGUUUGGACUGGGCAGAGCUCAACACAGCGUGGCAAAGUGGCUGUGGCUAGACUGCCUCUCUGGAUUCCUCGUCACUCAGCAGGGCAUCUCUGAGAGAAAUGCC

Variants of: B1
Assay: self-cleavage, relative activity (ratio to wild type); higher = more cleavage; in vitro, sequencing; the parent is a self-cleaving ribozyme

Variant | self-cleavage
U20C A24G U46A U130A U143A | 0.57
U20C A24U U45C | 1.77
U20C A30G U81A | 1.43
U20C A30G U100C | 1.25
U20C A30U U52A | 1.36
U20C A31G G40U A69G U81C G125U U143A | 0.84
U20C A31U A64G U100C | 0
U20C A31U A77G | 1.26
U20C A31U A94G U132C | 0.43
U20C A31U A107G | 2.21
U20C A31U A136G | 1.67
U20C A31U C101U | 1.58
U20C A31U U73A | 1.09
U20C A31U U143C | 1.3
U20C A42G A57U A78G | 0.06
U20C A42G A59U G82A | 0.96
U20C A42G A94G U112C | 0.59
U20C A42G U73C A94G U96A A138G | 0
U20C A42G U73G A129U | 1.24
U20C A42G U102A A140U | 0.78
U20C A42U U73C A136G | 0.35
U20C A43G U47C C51U | 1.47
U20C A43G U73C U132C | 0.66
U20C A43G U115C | 2.3

Variant | self-cleavage
U20C A50G G125U | 1.13
U20C A50G U73C | 0
U20C A57G G80A A136U | 2.02
U20C A57G G106A | 0.73
U20C A57U A67G C95U | 0.04
U20C A57U A78G | 0
U20C A59G U73A C99U | 0.02
U20C A59G U102C | 0.15
U20C A64G U104A | 0.22
U20C A64U U130C | 0.8
U20C A65G A69G A138G | 0
U20C A65G U134A | 0.26
U20C A67G A69U | 0
U20C A67G A140G | 0.34
U20C A67G G88A U134A | 0.04
U20C A67U U73C A79C | 0.84
U20C A69G A129U | 0.96
U20C A69G U85A | 0.45
U20C A69U A140G | 0
U20C A77G C99U | 1.37
U20C A77U A140G | 1.36
U20C A77U C128U | 1.25
U20C A77U U85C U96C | 0
U20C A78G G97U A121G U134A | 0

Variant | self-cleavage
U20C A107G A121U | 1.95
U20C A121U C145G | 1.36
U20C A124U A142G | 0.58
U20C A138G A142G | 1.97
U20C C37A A77G | 1.54
U20C C37U A136G | 0.4
U20C C38U U39A A59G A140G | 0.08
U20C C51A U130A | 1.28
U20C C61A A77G A92G | 0
U20C C99U U100C | 1.15
U20C G32A A69U | 0.04
U20C G33A C56U A136G | 0.26
U20C G34U U100A A124U | 1.2
U20C G35A A64G | 0.2
U20C G36A A43G U91C A140G | 0.22
U20C G36C U109C | 1.08
U20C G40U A121G A138G | 1.15
U20C G41A A42G | 1.56
U20C G41A A140G | 1.03
U20C G41A U73G A94G A141G | 0.45
U20C G48A U108C | 2.26
U20C G49U U62A U81C A121G A142U | 0.05
U20C G53U U134A | 0.87
U20C G55C A78G U130C | 0

Variant | self-cleavage
U20C G72A A77U | 1.41
U20C G75A A78G U100C | 1.62
U20C G75A A124G | 0.79
U20C G82A A117G | 0.54
U20C G82A U132C | 1.9
U20C G86C U102G | 0.03
U20C G93A U96C U130C | 0
U20C G122A U132C U143A | 1.82
U20C U23A G125A U134G | 1.41
U20C U23A U119C | 0.91
U20C U23C A59U C84A A92U U112C | 0.06
U20C U26A A42G U73C | 2.04
U20C U26C A57G G97A | 0
U20C U26C A64U U87G | 0.13
U20C U26C A140G | 0.78
U20C U26C A141G | 0
U20C U26C U47C | 2.09
U20C U26C U62C C95A A107U A138G | 0.03
U20C U26C U132C | 0.85
U20C U29A A30G U62C | 0.44
U20C U29C A64U U85A | 0.03
U20C U29C A67U G127A | 0.12
U20C U29C A138G | 1.53
U20C U29C U115A A121G A124U | 1.31

Variant | self-cleavage
U20C U29G G114A U115C | 1.41
U20C U29G U39A C113A | 1.67
U20C U39A A43G | 0.66
U20C U39A C145A | 1.65
U20C U39A G114A U134C C146U | 1.64
U20C U39C U52A U132C | 1.96
U20C U45C A65G | 0
U20C U45C G53U U119A A129G | 1.21
U20C U46A C90U | 0.07
U20C U46C G60A U62C G72A C84U U143A | 0.04
U20C U46C U104C | 2.3
U20C U47A U52A U96G | 0.05
U20C U47C A138G | 1.57
U20C U47C G122A | 2.19
U20C U47C U104C | 2.14
U20C U47G A136G | 1.1
U20C U52A A59U | 0.6
U20C U52A G97A | 0.13
U20C U62C A67G A129G A140G | 0
U20C U62C U100A A136G A142G | 0.13
U20C U73C A94U U130C A138G U143A | 0.77
U20C U73C A141G | 1.97
U20C U73C G88A | 0.1
U20C U85A A107U A124U U143C | 0.05

Variant | self-cleavage
U20C U85C A138G | 0.47
U20C U96A U134C | 0.17
U20C U96C U143C | 0.07
U20C U100C A136U | 2.74
U20C U100C U109C | 0.89
U20C U100C U115C | 1.53
U20C U108C A117U | 1.64
U20C U119C C131U A138G | 1.34
U20C U132C A136U | 1.19
U20G A24U U96C A124G | 0
U20G A31G A78G U134C A138G | 0.71
U20G A31G U100C | 0.84
U20G A42G G54A A107U A142G | 0.66
U20G A59U A78U A138U | 0.94
U20G A64G A92U A121C A129U | 0.25
U20G A65G U109A G114U | 0.02
U20G A69C G125A | 0.04
U20G A69G A77G | 0.92
U20G A77G U132A | 2.59
U20G A107G A142G | 1.84
U20G C63A U104C U130C | 0.21
U20G G25A C133A A140G | 0.43
U20G G35U A140G A142G | 1
U20G G75U A124G | 0.67

Variant | self-cleavage
U20G G86A A121U A136G | 0.13
U20G U23A A69U A79G | 0
U20G U26A A77G C101A | 1.12
U20G U45C A79G | 1.89
U20G U45C U62C A142G | 0.25
U20G U52G A129G | 2.76
U20G U62C A138G | 0.09
U20G U62C U73A | 0.1
U20G U85C U91C U96A C145A | 0
U20G U109C U130C | 1.72
G21A A22G G122A | 1
G21A A22G U39C U87C C128U | 0.13
G21A A43G U85C | 0.19
G21A A43U A67G G72A U85A U96A G127A | 0.05
G21A A77G U132C | 1.93
G21A A79U U96C | 0.21
G21A A94G U102A G106A A117G U132G A142U | 0
G21A A94G U119A | 0.15
G21A C61U U91C | 0.05
G21A G53A U73A U100C A129G | 1.16
G21A G105A A138G | 1.94
G21A U23C C38A | 1.11
G21A U29C G36C | 1.58
